# According to the supplement of paper PMC8728848:
# The list shows a part of the results.
# B1: a L Fucosidase (Streptosporangium roseum), D2B1P1_STRRD (protein)
# chain: MRRKLLLVPAVGLLVIGSIFATQPVASADTPPVYEPTVESLNSHPVPQWFNDDKFGIFIHWGAYSVPAWGPRGSYAEWYGNYMNAGGSATNAHHKATYGQDFNYDAFLQQWKAEKFDPADWVKLFKDAGAKYFVLTSKHHEGMALWDSKSSGRDSVDLGPGRDLAKELFDAARKDEAKLKAGFYYSLYEWYNPAYTGRPATNPYTGAEIPYTGAPGGGDYVKDYMLPQMRELIDGYDPDIIWCDGQWEKPASYWNTAGVIADYYNKALNSGKEVAVANRCKIQSGNLDSPELDFQTPEYTVKPDIDPVKWESSRGIAHSYGYNQNEPEEDHLTSDQLVDSLVDIVSKNGNLLLDIGPKADGTIPEIQRQRLLDIGAWLKANGEAIYGTTYWNRAEEKGGPDDVRYTAKDATLYATALKWPGEQLTLGADLPVDHSTRITMLGSGARLSWSRDEQGRVVVNTPQEAGKHAYVFKIETPGVRSLLRTSSSLAKEIAPGRTISGELTVTNPGKRHTPATKLSLTVPQGWTATLGAPRVRPLGPGESVKVPISVSAPEGVAPAPYTLGLYQRTGRMGTTTALPLTVNRPNLSLGKPATQKSTGYDAPASRAVDGNTGGDWSAGSTTHTAEPEKQAWWQVDLGASARLDSVDVWNRLDCCADRLKDFWVMASDQPFTTDDLDQARTAPGVTAVHVGEQAGSPSKVKLPEGTRGRYVRIQLASPSNPLSLAEVQVRGSMARPNLSLGKPATQKSTGYDAPASRAVDGNTGGDWSAGSTTHTAEPEKQAWWQVDLGASARLDSVDVWNRLDCCADRLKDFWVMASDQPFTTDDLDQARTAPGVTAVHVGEQAGSPSKVKLPEGTRGRYVRIQLASPSNPLSLAEVQVRLEHHHHHHS
# Tests used:
# Assay in all cases: glycan array binding signal (z-score within array); higher = stronger binding
# Conditions in all cases: glycan notation: IUPAC condensed, linker removed
# [1] = target: Neu5Ac(a2-6)GlcNAc(b1-4)GlcNAc(b1-4)GlcNAc
# Outline: (§1)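 Arrays were curated from the Consortium for Functional Glycomics database, 3228 in total, and kept only where the protein sequence was available. Binding is expressed as a within-array Z-score. This score was averaged across arrays of the same protein sequence at different concentrations or buffers and across linkers, and negative values can be read as non-binding.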
# Neu5Ac(a2-8)Neu5Ac = target: Neu5Ac(a2-8)Neu5Ac
# Outline: as §1
# [2] = target: Neu5Ac(a2-8)Neu5Ac(a2-3)Gal(b1-3)GalNAc(b1-4)[Neu5Ac(a2-3)]Gal(b1-4)Glc
# Outline: as §1
# [3] = target: Neu5Ac(a2-8)Neu5Ac(a2-3)Gal(b1-3)GalNAc(b1-4)[Neu5Ac(a2-8)Neu5Ac(a2-3)]Gal(b1-4)Glc
# Outline: as §1
# [4] = target: Neu5Ac(a2-8)Neu5Ac(a2-3)Gal(b1-4)Glc
# Outline: as §1
# [5] = target: Neu5Ac(a2-8)Neu5Ac(a2-3)Gal(b1-4)GlcNAc
# Outline: as §1
# [6] = target: Neu5Ac(a2-8)Neu5Ac(a2-3)[Gal(b1-3)GalNAc(b1-4)]Gal(b1-4)Glc
# Outline: as §1
# [7] = target: Neu5Ac(a2-8)Neu5Ac(a2-3)[GalNAc(b1-4)]Gal(b1-4)Glc
# Outline: as §1
# [8] = target: Neu5Ac(a2-8)Neu5Ac(a2-8)Neu5Ac
# Outline: as §1
# [9] = target: Neu5Ac(a2-8)Neu5Ac(a2-8)Neu5Ac(a2-3)Gal(b1-4)Glc
# Outline: as §1
# [10] = target: Neu5Ac(a2-8)Neu5Ac(a2-8)Neu5Ac(a2-3)[Gal(b1-3)GalNAc(b1-4)]Gal(b1-4)Glc
# Outline: as §1
# [11] = target: Neu5Ac(a2-8)Neu5Ac(a2-8)Neu5Ac(a2-3)[GalNAc(b1-4)]Gal(b1-4)Glc
# Outline: as §1
# [12] = target: Neu5Ac(a2-8)Neu5Ac(a2-8)Neu5Ac(a2-8)Neu5Ac(a2-3)[GalNAc(b1-4)]Gal(b1-4)Glc
# Outline: as §1
# [13] = target: Neu5Ac(a2-8)Neu5Gc(a2-3)Gal(b1-4)GlcNAc
# Outline: as §1
# [14] = target: Neu5Ac(b2-6)Gal(b1-4)GlcNAc
# Outline: as §1
# Neu5Ac(b2-6)GalNAc = target: Neu5Ac(b2-6)GalNAc
# Outline: as §1
# [15] = target: Neu5Ac9Ac(a2-3)Gal(b1-3)GlcNAc
# Outline: as §1
# [16] = target: Neu5Ac9Ac(a2-3)Gal(b1-4)GlcNAc
# Outline: as §1
# [17] = target: Neu5Ac9Ac(a2-6)Gal(b1-4)GlcNAc
# Outline: as §1
# [18] = target: Neu5Gc(a2-3)Gal(b1-3)GlcNAc
# Outline: as §1
# [19] = target: Neu5Gc(a2-3)Gal(b1-3)[Fuc(a1-4)]GlcNAc
# Outline: as §1
# Neu5Gc(a2-3)Gal(b1-4)Glc = target: Neu5Gc(a2-3)Gal(b1-4)Glc
# Outline: as §1
# [20] = target: Neu5Gc(a2-3)Gal(b1-4)GlcNAc
# Outline: as §1
# [21] = target: Neu5Gc(a2-3)Gal(b1-4)GlcNAc(b1-3)Gal(b1-4)GlcNAc(b1-2)Man(a1-3)[Neu5Gc(a2-3)Gal(b1-4)GlcNAc(b1-3)Gal(b1-4)GlcNAc(b1-2)Man(a1-6)]Man(b1-4)GlcNAc(b1-4)GlcNAc
# Outline: as §1
# [22] = target: Neu5Gc(a2-3)Gal(b1-4)[Fuc(a1-3)]GlcNAc
# Outline: as §1
# [23] = target: Neu5Gc(a2-6)Gal(b1-4)GlcNAc
# Outline: as §1
# Neu5Gc(a2-6)GalNAc = target: Neu5Gc(a2-6)GalNAc
# Outline: as §1
# [24] = target: Neu5Gc(a2-8)Neu5Ac(a2-3)Gal(b1-4)GlcNAc
# Outline: as §1
# [25] = target: Neu5Gc(a2-8)Neu5Gc(a2-3)Gal(b1-4)GlcNAc
# Outline: as §1
# [26] = target: Neu5Gc(a2-8)Neu5Gc(a2-3)Gal(b1-4)GlcNAc(b1-3)Gal(b1-4)GlcNAc
# Outline: as §1
binder,measurement,setting,value
B1,glycan array binding signal (z-score),[1],-0.366
same,glycan array binding signal (z-score),Neu5Ac(a2-8)Neu5Ac,-0.284
same,glycan array binding signal (z-score),[2],-0.521
same,glycan array binding signal (z-score),[3],-0.253
same,glycan array binding signal (z-score),[4],-0.55
same,glycan array binding signal (z-score),[5],-0.592
same,glycan array binding signal (z-score),[6],-0.226
same,glycan array binding signal (z-score),[7],-0.558
same,glycan array binding signal (z-score),[8],-0.449
same,glycan array binding signal (z-score),[9],-0.339
same,glycan array binding signal (z-score),[10],-0.494
same,glycan array binding signal (z-score),[11],-0.388
same,glycan array binding signal (z-score),[12],-0.261
same,glycan array binding signal (z-score),[13],-0.341
same,glycan array binding signal (z-score),[14],-0.312
same,glycan array binding signal (z-score),Neu5Ac(b2-6)GalNAc,-0.62
same,glycan array binding signal (z-score),[15],-0.339
same,glycan array binding signal (z-score),[16],-0.287
same,glycan array binding signal (z-score),[17],-0.548
same,glycan array binding signal (z-score),[18],0.239
same,glycan array binding signal (z-score),[19],0.103
same,glycan array binding signal (z-score),Neu5Gc(a2-3)Gal(b1-4)Glc,-0.051
same,glycan array binding signal (z-score),[20],0.071
same,glycan array binding signal (z-score),[21],0.548
same,glycan array binding signal (z-score),[22],-0.486
same,glycan array binding signal (z-score),[23],-0.317
same,glycan array binding signal (z-score),Neu5Gc(a2-6)GalNAc,-0.419
same,glycan array binding signal (z-score),[24],-0.341
same,glycan array binding signal (z-score),[25],-0.465
same,glycan array binding signal (z-score),[26],-0.268
